# Laboratory results published in PubChem BioAssay AID2675 (National Center for Advancing Translational Sciences (NCATS), 2010).
# The campaign covered roughly 280,000 compounds. About 100 (0.036%) were called active. This list was built around the results that the source calls inconclusive (neither active nor inactive); the mix of calls is not that of the screen. Calls follow the shape of the dose curve; as a rule, active = well fitted inhibition curve with a large enough effect in the signal ratio, with a control signal flat (not every such curve was filed as active); inconclusive = small, poorly fitted or top-dose-only effect, or effect the other way, or a change in a side signal; inactive = no such curve, though single readings can be large or run the other way; the % refers to the signal ratio. Potencies of inconclusive entries are doubtful fits and often do not repeat. “Side channel” marks fits to a control or component signal instead of the main read-out.
# Molecular target: Muscleblind-like protein 1 (Homo sapiens) (UniProt Q9NR56)
# UniProt Q9NR56, sequence (Q9NR56 whole entry, looked up): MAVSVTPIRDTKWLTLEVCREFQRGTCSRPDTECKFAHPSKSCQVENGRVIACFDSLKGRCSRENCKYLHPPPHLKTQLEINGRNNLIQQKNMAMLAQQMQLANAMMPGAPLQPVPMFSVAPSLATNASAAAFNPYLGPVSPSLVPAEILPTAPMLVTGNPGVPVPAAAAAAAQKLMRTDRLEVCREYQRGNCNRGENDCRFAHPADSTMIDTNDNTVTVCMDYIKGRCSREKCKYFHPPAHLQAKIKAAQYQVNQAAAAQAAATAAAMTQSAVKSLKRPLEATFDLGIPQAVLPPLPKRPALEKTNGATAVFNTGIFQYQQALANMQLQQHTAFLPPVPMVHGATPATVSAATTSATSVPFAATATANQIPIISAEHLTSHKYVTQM
# Assay: qHTS Assay for Inhibitors of MBNL1-poly(CUG) RNA binding
# Settings: TR-FRET MBNL1-His/biotin-(CUG)12 binding, 665/545 ratio; activity change, negative = inhibition: at 57.5 µM (top of the series)
# Outline: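 Compound titration spanned 92 nM–58 uM against the MBNL1-His/biotin-(CUG)12 complex. After 60 min at room temperature with 5 nM streptavidin-XL665 and 0.055 ng/ul terbium anti-His, ratiometric 665/545 nm emission (Ex 340 nm) normalized to controls.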
# % is scaled to controls: 0 for no effect and ±100 for the full control effect; potency is read from the fitted curve at half-maximal effect; tags tell the direction and shape of the fitted curve or compound fluorescence and quenching.
SMILES,"activity change, negative = inhibition",Potency
Cc1c(C(=O)Nc2nc3ccccc3[nH]2)cccc1[N+](=O)[O-],inactive: 8.3%,
O=C(NCc1cc([N+](=O)[O-])ccc1O)c1cccnc1Sc1ccccc1,,"inconclusive: 39.8 µM [quencher, single point]"
COc1ccc(NC(=O)CSc2nc3c(c(=O)n(C)c(=O)n3C)n2C)c(OC)c1,inactive: 4.62%,
O=C(CSc1nc2nn(-c3ccccc3)c(=O)c-2c2n1CCCCC2)NCCc1ccccc1,,"inconclusive: 22.4 µM [quencher, side channel, single point]"
O=c1c2sc(-c3ccccc3)cc2nc2n1CCCCC2,,"inconclusive: 11.2 µM [quencher, side channel, partial curve]"
COc1cccc(CNC(=O)CCNS(=O)(=O)c2cccc3nsnc23)c1,,"inconclusive: 14.1 µM [quencher, side channel, partial curve]"
CCC(C)(C)c1nnc(NC(=O)C2CCN(C(=O)c3ccco3)CC2)s1,inactive: -0.194%,
COC(=O)c1cc(C(=O)Nc2cccc(C)n2)cc([N+](=O)[O-])c1,,"inconclusive: 14.1 µM [quencher, side channel, partial curve]"
CS(=O)(=O)N1CCC(C(=O)NNC(=O)Nc2ccc(F)c(Cl)c2)CC1,inactive: -1.9%,
CC(=O)Nc1ccc2nc(-c3ccncc3)[nH]c2c1,inactive: 17.2%,
Cc1cc(=O)[nH]c(SCC(=O)O)c1C#N,inactive: 0.496%,
CC(=O)Cn1nnc2sc(-c3ccccc3)cc2c1=O,,"inconclusive: 6.31 µM [quencher, side channel, partial curve]"
CCOC(=O)C(=O)C1C(=O)Nc2ccccc21 (stereo not given),,"inconclusive: 17.8 µM [quencher, side channel, partial curve, poor fit]"
Oc1c(C2=NCCNC(C(F)(F)F)=C2)ccc2ccccc12,,"inconclusive: 7.08 µM [quencher, side channel, partial curve]"
COc1ccc(CN2C(=O)c3cccnc3C2=O)cc1S(=O)(=O)N1CCCCC1C (stereo not given),,"inconclusive: 15.8 µM [quencher, side channel, partial curve]"
COc1cc(/C=N/NC(=O)c2cccc(NC(=O)c3ccccc3)c2)ccc1O,,"inconclusive: 25.1 µM [quencher, side channel, partial curve]"
O=[N+]([O-])c1ccccc1/C=N/Nc1nccnc1Cl,,"inconclusive: 15.8 µM [quencher, side channel, partial curve]"
CC1(C)c2ssc(=S)c2-c2ccccc2N1C(=O)CSC1=NCCS1,,"inconclusive: 11.2 µM [quencher, side channel, partial curve]"
CCS(=O)(=O)C1=NN2C(=N)/C(=C\c3ccc(OC(=O)c4ccco4)c(OC)c3)C(=O)N=C2S1,,"inconclusive: 39.8 µM [quencher, side channel, partial curve]"
O=[N+]([O-])c1ccc(S(=O)(=O)N/N=C/c2ccsc2)cc1,,"inconclusive: 15.8 µM [quencher, side channel, partial curve]"
CC(C)c1cc(C(=O)N/N=C/C(Br)=C/c2ccccc2)n[nH]1,,"inconclusive: 17.8 µM [quencher, side channel, partial curve]"
CCn1c(SCC(=O)N2CCC(C)CC2)nc2c(c1=O)SCC2,,"inconclusive: 12.6 µM [quencher, side channel, partial curve]"

SMILES,"activity change, negative = inhibition",Potency
COc1cc(/C=N/NC(=O)c2ccncc2)ccc1OC(=O)c1ccc([N+](=O)[O-])cc1,,"inconclusive: 6.31 µM [quencher, side channel, partial curve]"
CCn1c(C(=O)NCCCN2CCc3ccccc3C2)cc2sccc21,,"inconclusive: 7.08 µM [quencher, side channel, single point]"
CCOC(=O)/C=C(/C)N1N=C(c2ccc(OC)cc2)CC1c1cccc([N+](=O)[O-])c1 (stereo not given),,"inconclusive: 22.4 µM [quencher, side channel, single point]"
N#Cc1nc(/C=C/c2ccccc2)oc1NCCCN1CCOCC1,,"inconclusive: 25.1 µM [quencher, partial curve]"
O=C(C1CCCN(S(=O)(=O)c2cccc3nsnc23)C1)N1CCN(c2ccccn2)CC1 (stereo not given),,"inconclusive: 7.08 µM [quencher, side channel, partial curve]"
CCOC(=O)c1[nH]c(=O)[nH]c1COC(=O)c1cc2ccccc2o1,,"inconclusive: 63.1 µM [inhibitor, single point]"
N=c1n(Cc2ccc(Cl)cc2)c2ccccc2n1CC(O)COc1ccccc1 (stereo not given),inactive: -5.15%,
Cc1ccc(OCC(=O)N/N=C/c2ccc([N+](=O)[O-])o2)cc1,,"inconclusive: 14.1 µM [quencher, partial curve]"
COc1ccc2cc(S(=O)(=O)N3CCCCCC3)ccc2c1,inactive: 2.08%,
O=C1CCCC(O)=C1N=Nc1ccc2ncsc2c1,,"inconclusive: 12.6 µM [quencher, side channel, partial curve]"
Cc1ccc(-c2cc(C(=O)N3CCN(c4ccc(F)cc4)CC3)c3ccccc3n2)o1,inactive: -14.7%,
CC1(C)CC(=O)C=C(NCc2ccc(Cl)c(Cl)c2)C1,inactive: -7.05%,
Cc1cc2nc3c(=O)n(CCc4ccccc4)c(=O)[nH]c3nc2cc1N,,"inconclusive: 3.16 µM [quencher, side channel, full curve, poor fit]"
O=C(NNS(=O)(=O)c1ccccc1)c1cccc([N+](=O)[O-])c1,,"inconclusive: 15.8 µM [quencher, side channel, partial curve]"
CN1C(=O)c2cccc(NC(=O)CCc3ccccc3)c2C1=O,,"inconclusive: 11.2 µM [quencher, side channel, partial curve]"
O=[N+]([O-])c1ccc(-c2cnc3ccccc3n2)cc1,,"inconclusive: 3.16 µM [quencher, side channel, full curve]"
CCn1c(O)c(/C=C2\C=Nc3ccccc32)sc1=Nc1ccccc1,inactive: -14.7%,
COc1ccc(CNC(=S)Nc2ccccc2C)cc1,inactive: 0.668%,
O=C(Cn1nnc(-c2ccccc2)n1)NNC(=O)c1cccc([N+](=O)[O-])c1,,"inconclusive: 31.6 µM [quencher, single point]"
CCOC(=O)c1c(-c2cccc([N+](=O)[O-])c2)csc1NC(=O)CCCOc1ccccc1,inactive: -6.63%,
COc1cccc(C(=O)OCC(=O)NCCCc2ccccc2)c1,inactive: 3.26%,
Cc1nn(C)c(C(=O)N/N=C/c2cccc(Oc3ccccc3)c2)c1Br,inactive: 8.94%,

SMILES,"activity change, negative = inhibition",Potency
O=C(N/N=C/c1ccc(O)cc1)c1cc[n+](Cc2ccccc2)cc1,,"inconclusive: 7.08 µM [quencher, side channel, single point]"
Cc1ccsc1/C=C1\SC(=S)N(CC2CCCO2)C1=O (stereo not given),,"inconclusive: 31.6 µM [quencher, side channel, single point]"
CCOC(=O)N1CCN(S(=O)(=O)c2ccc(C(=O)Nc3nnc(C)o3)cc2)CC1,inactive: 4.91%,
COc1ccc(-n2ncc(N(C)n3cccc3)c(Cl)c2=O)cc1,inactive: 23.1%,
COc1cc2c(C(=O)NCCCOC(C)C)cn(CC(C)C)c(=O)c2cc1OC,,"inconclusive: 44.7 µM [quencher, side channel, partial curve, poor fit]"
CC1=C(C(=O)OCc2ccccc2)C(c2cccc([N+](=O)[O-])c2)NC(=O)N1C (stereo not given),,"inconclusive: 11.2 µM [quencher, partial curve]"
Cn1c(NC(=O)c2ccc(Cl)s2)cc(=O)n(C)c1=O,,"inconclusive: 44.7 µM [quencher, side channel, single point]"
CCOCCCNC(=O)/C(C#N)=C/c1ccc(C)o1,,"inconclusive: 28.2 µM [quencher, side channel, partial curve]"
CCOc1ccc(C(=O)Nc2ccc(C(F)(F)F)n(C)c2=O)cc1,,"inconclusive: 35.5 µM [fluorescent, side channel, single point]"
COC(CNC(=O)c1ccc(N2CCC3(CC2)OCCO3)c([N+](=O)[O-])c1)OC,,"inconclusive: 0.126 µM [quencher, side channel, full curve, poor fit]"
CCc1ccc(/C=C/C(=O)c2cc(Br)ccc(=O)c2O)cc1,inactive: 6.08%,
O=C(Nc1cccnc1)c1ccc(COc2ccccc2Cl)o1,inactive: 3.14%,
COc1ccc(OC)c(CCNC(=O)c2sc3nc4n(c(=O)c3c2C)CCC4)c1,,"inconclusive: 39.8 µM [fluorescent, side channel, single point]"
O=C(Nc1ncccn1)c1ccc([N+](=O)[O-])cc1,,"inconclusive: 12.6 µM [quencher, side channel, partial curve]"
Oc1ccccc1C(=S)N1CCN(c2cccc(Cl)c2)CC1,inactive: 2.86%,
COc1ccc(CNC(=O)Cn2nnc3ccccc3c2=O)cc1,,"inconclusive: 31.6 µM [quencher, single point]"
Cc1ccc(/C=N/Nc2ncnc3nc[nH]c23)cc1,,"inconclusive: 39.8 µM [quencher, side channel, partial curve, poor fit]"
Cc1ccc(CNC(=O)CSc2c3c(nc4cc(Cl)ccc24)CCCC3)o1,inactive: 23.3%,
CC(=O)c1ccc(N2CCN(C(C)C(=O)NC3CCCc4ccccc43)CC2)cc1 (stereo not given),inactive: -6.6%,
CC(=O)Nc1ccc(NC(=O)C(C)n2nc([N+](=O)[O-])c(Br)c2C)cc1 (stereo not given),,"inconclusive: 20 µM [quencher, side channel, single point]"
O=C1CN(C(=O)/C=C/c2ccc(Br)cc2)CCN1,,"inconclusive: 15.8 µM [quencher, side channel, partial curve]"
